# PubChem BioAssay AID1460 (National Center for Advancing Translational Sciences (NCATS), 2008)
# Screen size: about 270,000 compounds; about 5,800 (2.1%) were called active. The inconclusive results got no clear call from the source; some entries with a clear call stand among them for comparison. Calls follow the shape of the dose curve; as a rule, active = well fitted inhibition curve with a large enough effect; inconclusive = small, poorly fitted or top-dose-only effect; inactive = flat fitted curve, though single readings scatter. Potencies beside an inconclusive call are fits to weak or partial responses and may not hold up.
# Target: Microtubule-associated protein tau (Homo sapiens) (UniProt P10636)
# Test: qHTS for Inhibitors of Tau Fibril Formation, Thioflavin T Binding; also: nearly all actives have a fitted effect of over 55% in size
# Settings: recombinant tau K18 P301L (four-repeat tau fragment), heparin-induced fibrillization, ThT fluorescence; series mostly up to 57.4 µM; activity, negative = inhibition: at the top concentration
# Summary of the method: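 In this qHTS, human K18 P301L tau is incubated with compound and heparin for 6 hr at 37 C, and Thioflavin T fluorescence then reports fibril load.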
# % is scaled to controls: 0 for no effect and ±100 for the full control effect; potency is read from the fitted curve at half-maximal effect; tags tell the direction and shape of the fitted curve.
# UniProt P10636, sequence (P10636 whole entry, looked up): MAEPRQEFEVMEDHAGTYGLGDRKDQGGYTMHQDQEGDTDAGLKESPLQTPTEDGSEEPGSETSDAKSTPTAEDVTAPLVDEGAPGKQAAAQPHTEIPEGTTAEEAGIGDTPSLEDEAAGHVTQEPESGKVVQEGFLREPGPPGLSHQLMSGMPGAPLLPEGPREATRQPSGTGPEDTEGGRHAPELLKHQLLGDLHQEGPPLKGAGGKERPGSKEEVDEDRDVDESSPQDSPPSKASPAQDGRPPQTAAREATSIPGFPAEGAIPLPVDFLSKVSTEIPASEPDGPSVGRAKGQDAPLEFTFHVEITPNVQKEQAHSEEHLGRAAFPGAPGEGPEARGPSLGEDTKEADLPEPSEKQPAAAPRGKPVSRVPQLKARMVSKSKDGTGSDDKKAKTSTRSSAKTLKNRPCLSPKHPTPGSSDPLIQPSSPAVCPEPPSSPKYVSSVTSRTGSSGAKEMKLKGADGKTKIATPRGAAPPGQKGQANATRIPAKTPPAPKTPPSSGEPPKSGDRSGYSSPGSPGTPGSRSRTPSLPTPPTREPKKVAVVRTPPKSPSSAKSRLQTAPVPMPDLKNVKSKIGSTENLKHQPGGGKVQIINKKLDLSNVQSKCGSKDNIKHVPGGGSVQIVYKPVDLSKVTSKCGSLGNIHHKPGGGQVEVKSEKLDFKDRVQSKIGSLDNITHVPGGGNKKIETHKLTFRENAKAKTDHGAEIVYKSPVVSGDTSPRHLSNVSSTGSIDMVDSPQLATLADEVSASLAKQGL
Compound,Potency,"activity, negative = inhibition"
CCc1nn2cc(C(=O)c3cc(Cl)ccc3O)cnc2c1-c1ccc(F)cc1,"inconclusive: 31.6 µM [inhibitor, single point]",
COc1ccccc1Nc1nnc(SCc2cc(=O)n3cc(C)ccc3n2)s1,"inconclusive: 7.08 µM [inhibitor, partial curve]",
CN(Cc1ccco1)c1cc(-c2ccccc2Cl)ncn1,"inconclusive: 7.94 µM [inhibitor, partial curve]",
FC(F)Oc1ccc(NC(=S)Nc2ccc3cn[nH]c3c2)cc1,"inconclusive: 28.2 µM [inhibitor, partial curve]",
COc1ccc(NC(=O)C2CCCCN2N)cc1OCC(C)C (stereo not drawn),"inconclusive: 17.8 µM [inhibitor, partial curve]",
COCCNC(=S)NNc1ccccc1[N+](=O)[O-],"inconclusive: 17.8 µM [inhibitor, partial curve, poor fit]",
CCOC(=O)c1c(NC(=O)COc2cccc(C)c2C)sc2c1CCCCC2,"inconclusive: 35.5 µM [inhibitor, single point]",
COc1cccc(OC)c1-c1nn2c(-c3ccccc3Cl)nnc2s1,"inconclusive: 10 µM [inhibitor, partial curve]",
CCOC(=O)N1CCN(C(=O)c2ccc3c(=O)n(Cc4ccc(OC)cc4)c(=S)[nH]c3c2)CC1,,inactive: -11.4%
COc1cc(C(=O)N(Cc2cccnc2)Cc2cc3cc4c(cc3[nH]c2=O)OCCO4)cc(OC)c1OC,,inactive: 8.9%
COc1ccc(-c2cn3nc(N4CCC(C(=O)NCc5ccc(F)cc5)CC4)sc3n2)cc1,"inconclusive: 1.58 µM [inhibitor, full curve]",
Cc1ccc2[nH]c(O)c(N=NC(=O)C(C)n3cnc4ccccc4c3=O)c2c1 (stereo not drawn),"inconclusive: 22.4 µM [inhibitor, single point]",
COc1ccc2c(c1)O[C@@H](c1ccc3c(c1)OCO3)[C@H](OC(=O)NCc1ccco1)C2=O,"inconclusive: 20 µM [inhibitor, partial curve]",
Cn1c(=O)c(=O)n(C)c2cc(S(=O)(=O)NCc3ccc(Cl)cc3)ccc21,,inactive: 6.05%
CCOC(CNC(=O)c1ccc2c(c1)ncn2-c1cccc(F)c1)OCC,,inactive: -0.204%
O=C(/C=C/c1c(F)cccc1Cl)c1ccc(O)cc1,"inconclusive: 8.91 µM [inhibitor, partial curve]",
O=C(CCc1nc2ccccc2c(=O)[nH]1)OCC(=O)c1ccc(C2CCCCC2)cc1,"inconclusive: 0.794 µM [inhibitor, partial curve]",
Cc1ccc(NC(=O)c2cn(-c3ccccc3)nc2-c2ccccc2)cc1,,inactive: -16.1%
